# Laboratory results published in the supplement of paper PMC8728848.
# The list shows a part of the results.
# B1: PX9937D-bvu-500-26-500 (Bacteroides vulgatus) (protein)
# chain: DPVSDITDLNYWKTPEQFDSFVFGLHSRFRSHSWNMFLLGEARSDVFGGIPFGGEATQGMERFPYNTLNAENPGISGFGDLYQNINQMNLFISRTLHTDVLTESARNYYLGQVYGLRAYYMYQLYRSWGDVVFTEEPSLGFEVGKLAKAATPAAEIFEQVKKDIESSLSYFGSDYTIKEKKSLWSKAATLMLKADVYLWSAHRDGGEGDARTAKNALVDIQNNISRSNLDLMDTYQGVFAYDNKGNKEIIFTIHNELFEYNLWNGNNDLFPQADYLGKFYNADGTLINTSVENNFGIMRLMVKLENFKKFLPGDTRRDVTLKDVYNKVENGKLELVGVYPHKYWGVMNGSTRVRCDDYPIYRYSDLLLMLAEAKVLLGEDPATEINRVRRRAFGDAYDASTVGFPNQEVDKRPADAVLQERLFEFMLEGKRWYDLRRFGDSYVLDYTPAEPARLLWPINQGALTNNPLLKQTVGY
# Experiments:
# Experiment in all cases: glycan array binding signal (z-score within array); higher = stronger binding
# Details in all cases: glycan notation: IUPAC condensed, linker removed
# [1] = target: Fuc(a1-2)Gal
# Outline: (§1)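 Glycan array binding is given as a within-array Z-score, which can be read as non-binding when negative. The arrays, 3228 of them, came from the Consortium for Functional Glycomics database and were retained only where the protein sequence was available. Z-scores were averaged across arrays of the same protein sequence at different concentrations or buffers and across linkers.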
# [2] = target: Fuc(a1-2)Gal(b1-3)GalNAc
# Outline: as §1
# [3] = target: Fuc(a1-2)Gal(b1-3)GalNAc(a1-3)[Fuc(a1-2)]Gal(b1-4)Glc
# Outline: as §1
# [4] = target: Fuc(a1-2)Gal(b1-3)GalNAc(a1-3)[Fuc(a1-2)]Gal(b1-4)GlcNAc
# Outline: as §1
# [5] = target: Fuc(a1-2)Gal(b1-3)GalNAc(b1-3)Gal
# Outline: as §1
# [6] = target: Fuc(a1-2)Gal(b1-3)GalNAc(b1-3)Gal(a1-4)Gal(b1-4)Glc
# Outline: as §1
# [7] = target: Fuc(a1-2)Gal(b1-3)GalNAc(b1-4)[Neu5Ac(a2-3)]Gal(b1-4)Glc
# Outline: as §1
# [8] = target: Fuc(a1-2)Gal(b1-3)GlcNAc
# Outline: as §1
# [9] = target: Fuc(a1-2)Gal(b1-3)GlcNAc(b1-2)Man(a1-3)[Fuc(a1-2)Gal(b1-3)GlcNAc(b1-2)Man(a1-6)]Man(b1-4)GlcNAc(b1-4)GlcNAc
# Outline: as §1
# [10] = target: Fuc(a1-2)Gal(b1-3)GlcNAc(b1-2)Man(a1-3)[Fuc(a1-2)Gal(b1-3)GlcNAc(b1-2)Man(a1-6)]Man(b1-4)GlcNAc(b1-4)[Fuc(a1-6)]GlcNAc
# Outline: as §1
# [11] = target: Fuc(a1-2)Gal(b1-3)GlcNAc(b1-3)Gal(b1-4)Glc
# Outline: as §1
# [12] = target: Fuc(a1-2)Gal(b1-3)GlcNAc(b1-3)GalNAc
# Outline: as §1
# [13] = target: Fuc(a1-2)Gal(b1-3)GlcNAc(b1-3)[Fuc(a1-2)Gal(b1-3)GlcNAc(b1-6)]GalNAc
# Outline: as §1
# [14] = target: Fuc(a1-2)Gal(b1-3)GlcNAc(b1-3)[Gal(b1-4)GlcNAc(b1-6)]Gal(b1-4)Glc
# Outline: as §1
# [15] = target: Fuc(a1-2)Gal(b1-3)GlcNAc(b1-3)[Neu5Ac(a2-6)Gal(b1-4)GlcNAc(b1-6)]Gal(b1-4)Glc
# Outline: as §1
# [16] = target: Fuc(a1-2)Gal(b1-3)GlcNAc6S
# Outline: as §1
# [17] = target: Fuc(a1-2)Gal(b1-3)[Fuc(a1-4)]GlcNAc
# Outline: as §1
# [18] = target: Fuc(a1-2)Gal(b1-3)[Fuc(a1-4)]GlcNAc(b1-2)Man(a1-3)[Fuc(a1-2)Gal(b1-3)[Fuc(a1-4)]GlcNAc(b1-2)Man(a1-3)]Man(b1-4)GlcNAc(b1-4)GlcNAc
# Outline: as §1
# [19] = target: Fuc(a1-2)Gal(b1-3)[Fuc(a1-4)]GlcNAc(b1-2)Man(a1-3)[Fuc(a1-2)Gal(b1-3)[Fuc(a1-4)]GlcNAc(b1-2)Man(a1-6)]Man(b1-4)GlcNAc(b1-4)[Fuc(a1-6)]GlcNAc(b1-4)[Fuc(a1-6)]GlcNAc
# Outline: as §1
# [20] = target: Fuc(a1-2)Gal(b1-3)[Fuc(a1-4)]GlcNAc(b1-3)[Fuc(a1-3)[Gal(b1-4)]GlcNAc(b1-6)]Gal(b1-4)Glc
# Outline: as §1
# [21] = target: Fuc(a1-2)Gal(b1-3)[Fuc(a1-4)]GlcNAc(b1-3)[Gal(b1-4)GlcNAc(b1-6)]Gal(b1-4)Glc
# Outline: as §1
# [22] = target: Fuc(a1-2)Gal(b1-4)Glc
# Outline: as §1
# [23] = target: Fuc(a1-2)Gal(b1-4)Glc6S
# Outline: as §1
# [24] = target: Fuc(a1-2)Gal(b1-4)GlcNAc
# Outline: as §1
# [25] = target: Fuc(a1-2)Gal(b1-4)GlcNAc(b1-2)Man
# Outline: as §1
# [26] = target: Fuc(a1-2)Gal(b1-4)GlcNAc(b1-2)Man(a1-3)[Fuc(a1-2)Gal(b1-4)GlcNAc(b1-2)Man(a1-6)]Man(b1-4)GlcNAc(b1-4)GlcNAc
# Outline: as §1
# [27] = target: Fuc(a1-2)Gal(b1-4)GlcNAc(b1-2)Man(a1-3)[Fuc(a1-2)Gal(b1-4)GlcNAc(b1-2)Man(a1-6)]Man(b1-4)GlcNAc(b1-4)[Fuc(a1-6)]GlcNAc
# Outline: as §1
# [28] = target: Fuc(a1-2)Gal(b1-4)GlcNAc(b1-2)[Fuc(a1-2)Gal(b1-4)GlcNAc(b1-4)]Man(a1-3)[Fuc(a1-2)Gal(b1-4)GlcNAc(b1-2)Man(a1-6)]Man(b1-4)GlcNAc(b1-4)GlcNAc
# Outline: as §1
# [29] = target: Fuc(a1-2)Gal(b1-4)GlcNAc(b1-3)Gal(b1-4)GlcNAc
# Outline: as §1
# [30] = target: Fuc(a1-2)Gal(b1-4)GlcNAc(b1-3)Gal(b1-4)GlcNAc(b1-2)Man(a1-3)[Fuc(a1-2)Gal(b1-4)GlcNAc(b1-3)Gal(b1-4)GlcNAc(b1-2)Man(a1-6)]Man(b1-4)GlcNAc(b1-4)GlcNAc
# Outline: as §1
binder,measurement,setting,value
B1,glycan array binding signal (z-score),[1],-0.144
same,glycan array binding signal (z-score),[2],-0.346
same,glycan array binding signal (z-score),[3],-0.631
same,glycan array binding signal (z-score),[4],-0.625
same,glycan array binding signal (z-score),[5],0.258
same,glycan array binding signal (z-score),[6],0.37
same,glycan array binding signal (z-score),[7],-0.261
same,glycan array binding signal (z-score),[8],-0.32
same,glycan array binding signal (z-score),[9],0.319
same,glycan array binding signal (z-score),[10],-0.066
same,glycan array binding signal (z-score),[11],-0.541
same,glycan array binding signal (z-score),[12],-0.087
same,glycan array binding signal (z-score),[13],-0.163
same,glycan array binding signal (z-score),[14],-0.166
same,glycan array binding signal (z-score),[15],-0.051
same,glycan array binding signal (z-score),[16],0.249
same,glycan array binding signal (z-score),[17],-0.665
same,glycan array binding signal (z-score),[18],0.219
same,glycan array binding signal (z-score),[19],-0.265
same,glycan array binding signal (z-score),[20],0.103
same,glycan array binding signal (z-score),[21],-0.131
same,glycan array binding signal (z-score),[22],-0.401
same,glycan array binding signal (z-score),[23],-0.128
same,glycan array binding signal (z-score),[24],-0.263
same,glycan array binding signal (z-score),[25],-0.43
same,glycan array binding signal (z-score),[26],1.07
same,glycan array binding signal (z-score),[27],2.63
same,glycan array binding signal (z-score),[28],0.277
same,glycan array binding signal (z-score),[29],-0.632
same,glycan array binding signal (z-score),[30],-0.017
